Data: PubChem BioAssay (NCATS)
Inconclusive means that the source gave no clear call. Such entries were picked first, then a sample of the others. Potencies beside an inconclusive call are fits to weak or partial responses and may not hold up. Activity calls are given as the source filed them. Calls come from the whole dose curve; as a rule, active = well fitted cell-killing curve with a large enough effect; inconclusive = small, poorly fitted or top-dose-only effect, or effect the other way; inactive = no such curve, though single readings can be large or run the other way.

Assays:
[1] = Viability qHTS for spleen associated tyrosine kinase inhibitor (SYKi) naive MV4-11 cells (AID 1963823); conditions: MV4-11 AML viability, CellTiter-Glo luminescence, 72 h; viability (% of control): at 45 µM (top of the series); note: nearly all actives have a fitted effect of over 40% in size
Outline: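 Seeding of 500 SYKi-naive MV4-11 cells per well onto pre-dispensed compounds preceded a 72 hr incubation at 37 C. Luminescent CellTiter-Glo signal, read after 10 min at room temperature, reflected viable cells.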

[2] = Viability qHTS for spleen associated tyrosine kinase inhibitor (SYKi) drug resistant MV4-11 cells (AID 1963824); conditions: SYKi-resistant MV4-11 viability, CellTiter-Glo, 72 h; series mostly up to 45 µM; note: nearly all actives have a fitted effect of over 35% in size
Outline: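 SYK-inhibitor-resistant MV4-11 AML cells were seeded at 500 per well onto compound and cultured 72 hours (37 °C, 5% CO2). CellTiter-Glo was then added, and after 10 min at room temperature, luminescence gave viability.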
Potency is the fitted concentration of half-maximal effect; tags give direction and shape of the fitted curve.

SMILES	Potency [1]	Potency [2]	viability (% of control) [1]	viability, % of control [2]
CC1Oc2cc(cnc2N)-c2c(nn(C)c2C#N)CN(C)C(=O)c2ccc(F)cc21 (stereo unspecified)	inconclusive: 13 µM [cytotoxic, partial curve]	inconclusive: 9.2 µM [cytotoxic, partial curve]		
CC1CCC23COC(=O)C2=CC(O)CC3C1(C)CCC1=CC(O)OC1=O (stereo unspecified)	inactive	inactive		
COc1ccc2cc3c(NC(=O)c4ccco4)nn(C)c3nc2c1	inconclusive: 2.59 µM [cytotoxic, full curve]	inconclusive: 2.59 µM [cytotoxic, full curve]		
O=C1C=CC2OC(c3ccccc3)C(O)C2O1 (stereo unspecified)	active: 6.51 µM	active: 4.11 µM		
CN(C)c1cccc(Oc2cnc(Nc3cccc(O)c3)nc2)c1	inconclusive: 23.1 µM [cytotoxic, partial curve]	inconclusive: 14.6 µM [cytotoxic, partial curve]		
COc1cc(O)cc(OC2OC(CO)C(O)C(O)C2O)c1 (stereo unspecified)	inactive	inactive		
O=C(c1ccccc1)c1ccc2nc(NC(=O)c3csc(C4CCN(c5ncnc6ccsc56)CC4)n3)[nH]c2c1	inconclusive: 4.61 µM [cytotoxic, partial curve]	active: 2.31 µM		
COc1ccccc1N1CCN(CC(C(=O)NC(C)(C)C)c2ccccc2)CC1 (stereo unspecified)	inconclusive: 20.6 µM [cytotoxic, partial curve, poor fit]	inconclusive: 29.1 µM [cytotoxic, single point]		
NC1=NC2(c3cc(NC(=O)c4ccc(F)cn4)ccc3F)COCC2CS1 (stereo unspecified)	inconclusive: 7.31 µM [cytotoxic, partial curve, poor fit]	inconclusive: 18.4 µM [cytotoxic, partial curve, poor fit]		
CN(C)C(=O)C(O)C(Cc1ccccc1)NC(=O)c1cc2cc(Cl)ccc2[nH]1 (stereo unspecified)	inconclusive: 9.2 µM [cytotoxic, partial curve, poor fit]	inconclusive: 16.4 µM [cytotoxic, partial curve, poor fit]		
CC[C@H](/C=C/[C@@H](C)[C@H]1CC[C@H]2[C@@H]3CC=C4C[C@@H](O)CC[C@]4(C)[C@H]3CC[C@]12C)C(C)C			inactive: 82.1% [at 4.97 µM]	inactive: 108% [at 4.97 µM]
O=c1[nH]ccc2cc(OC3CCNCC3)ccc12	inconclusive: 9.2 µM [cytotoxic, partial curve]	inconclusive: 23.1 µM [cytotoxic, single point]		
CCc1c(-c2ccccc2)c(-c2ccccc2)nn1-c1ccccc1-c1cccc(OCC(=O)O)c1	inactive	inconclusive: 1.84 µM [cytotoxic, partial curve, poor fit]		
CC/C=C/CC1=C(CCCCCCCC(=O)O)CCC1=O	inactive	inconclusive: 14.6 µM [cytotoxic, partial curve]		
CC(C)=CCc1cc(C(O)C2NC(=O)CNC(=O)C(Cc3c[nH]c4ccccc34)NC(=O)C3CCCN3C(=O)CNC(=O)C(C(C)C)NC(=O)CNC2=O)ccc1O (stereo unspecified)			inactive: 78.4% [at 9.25 µM]	inactive: 92.7% [at 9.25 µM]
CN(c1ccc(NC(=O)Nc2ccc(OC(F)(F)F)cc2)cc1)c1ccnc(Nc2cccc(S(N)(=O)=O)c2)n1	inconclusive: 0.0092 µM [cytotoxic, full curve]	inconclusive: 0.0092 µM [cytotoxic, full curve]		
C[S+](CC[C@H](N)C(=O)[O-])C[C@H]1O[C@@H](n2cnc3c(N)ncnc32)[C@H](O)[C@@H]1O (stereo partly specified)	inactive	inactive		
CN=C(NC#N)NCCSCc1csc(N=C(N)N)n1	inactive	inactive		
O=C(OC1C=C(CO)C2C(OC3OC(CO)C(O)C(O)C3O)OC=CC12)c1ccc(O)cc1 (stereo unspecified)	inactive	inactive		
O=C(CCCCN1CCOCC1)Nc1ccc(-c2cccnc2)cc1	inconclusive: 13 µM [cytotoxic, partial curve]	inconclusive: 18.4 µM [cytotoxic, single point]		
C/C=C\NC(=O)C1NC(=O)C(CC(N)=O)NC(=O)C(NC(=O)C(=O)C(C)CC)Cc2ccc(O)c(c2)-c2cccc3c2NC(=O)C3(O)C1O (stereo unspecified)	inconclusive: 3.06 µM [cytotoxic, partial curve]	inconclusive: 4.32 µM [cytotoxic, partial curve]		
CCOc1cc(N2CCC(O)CC2)ccc1Nc1ncc2c(n1)N(C1CCCC1)CCC(=O)N2C	inconclusive: 0.731 µM [cytotoxic, full curve]	inconclusive: 0.731 µM [cytotoxic, full curve]		

SMILES	Potency [1]	Potency [2]	viability (% of control) [1]	viability, % of control [2]
C/C=C1/C[N+](C)([O-])C2Cc3c([nH]c4ccccc34)C(=O)CC1C2C(=O)OC (stereo unspecified)	inconclusive: 14.3 µM [cytotoxic, single point]	inconclusive: 9.04 µM [cytotoxic, partial curve, poor fit]		
CC(C)=CCC/C(C)=C/CO[C@@H]1O[C@H](CO[C@@H]2OC[C@](O)(CO)[C@H]2O)[C@@H](O)[C@H](O)[C@H]1O	inconclusive: 3.17 µM [cytotoxic, single point]	inconclusive: 0.159 µM [cytotoxic, full curve, poor fit]		
C=C(F)c1sc(CNCCCNc2cc(=O)c3ccccc3[nH]2)c(C)c1Br	inconclusive: 0.58 µM [cytotoxic, full curve]	inconclusive: 1.84 µM [cytotoxic, partial curve]		
CC1(C)CC=C(C#Cc2ccccc2)c2cc(/C=C/c3ccc(C(=O)O)cc3)ccc21	inconclusive: 29.1 µM [cytotoxic, single point]	inconclusive: 20.6 µM [cytotoxic, single point]		
COc1ccc(N2CCN(C(=O)c3cc4c(s3)-c3ccccc3S(=O)(=O)C4)CC2)cc1	inconclusive: 4.61 µM [cytotoxic, partial curve, poor fit]	inactive		
COc1nccnc1NS(=O)(=O)c1ccc(N)cc1	inactive	inactive		
CCn1cc(NC(=S)Nc2cc(Cl)ccc2OC)c(C(N)=O)n1	inactive	inconclusive: 25.9 µM [cytotoxic, partial curve, poor fit]		
CC1CCC2(C(=O)O)CCC3(C)C(=CCC4C5(C)C[C@@H](O)[C@@H](O)C(C)(CO)C5CCC43C)C2C1(C)O (stereo partly specified)	inconclusive: 15.9 µM [cytotoxic, single point]	inconclusive: 14.2 µM [cytotoxic, single point]		
COC(=O)c1cc(OC)cc(OC)c1C(=O)c1c(OC)cc2c(c1O)C1CCC(O)C(C)(O2)O1 (stereo unspecified)	inconclusive: 7.09 µM [cytotoxic, partial curve, poor fit]	inconclusive: 12.6 µM [cytotoxic, single point]		
O=[N+]([O-])c1ccc(Oc2ccc3c(c2)CCC(c2ccccc2)O3)nc1 (stereo unspecified)	inconclusive: 16.4 µM [cytotoxic, partial curve]	inconclusive: 18.4 µM [cytotoxic, single point]		
COC1=CC(=O)C=C(C)C12Oc1c(Cl)c(OC)cc(OC)c1C2=O (stereo unspecified)	inconclusive: 14.3 µM [cytotoxic, partial curve]	inconclusive: 11.4 µM [cytotoxic, partial curve]		
C=C(C(=O)O)[C@@H]1CC=C(CCC(C)=O)[C@@H](C)CC1	inconclusive: 18.4 µM [cytotoxic, partial curve]	inconclusive: 23.1 µM [cytotoxic, partial curve]		
CCCN(CCN1CCN(c2ccccc2OC)CC1)C1CCc2ncsc2C1 (stereo unspecified)	inconclusive: 10.3 µM [cytotoxic, partial curve]	inconclusive: 16.4 µM [cytotoxic, partial curve, poor fit]		
CC(C)(C)c1cc(Br)cc([C@H](CC(=O)O)NC(=O)CNC(=O)c2cc(O)cc(NC3=NCC(O)CN3)c2)c1 (stereo partly specified)	inactive	inactive		
CC1(C)C2CC=C(COC3OC(COC4OCC(O)(CO)C4O)C(O)C(O)C3O)C1C2 (stereo unspecified)	inconclusive: 0.0709 µM [rising, full curve, poor fit]	inconclusive: 0.008 µM [rising, full curve, poor fit]		
CCC(=O)N[C@@H]1Cc2ccccc2[C@H](c2ccccc2)C1	inconclusive: 18.4 µM [cytotoxic, single point]	inconclusive: 14.6 µM [cytotoxic, partial curve]		
CC1(C)CC[C@]2(C(=O)O[C@@H]3O[C@H](CO)[C@@H](O)[C@H](O)[C@H]3O)CC[C@]3(C)C(=CCC4[C@@]5(C)C[C@@H](O)[C@H](O)[C@@](C)(CO)C5CC[C@]43C)C2[C@@H]1O (stereo partly specified)	inconclusive: 0.0019 µM [rising, full curve]	inactive		
CC(=O)N[C@@H](CS)C(=O)O	inactive	inactive		
CC(=O)c1cc(C(=O)N[C@@H](C)Cn2ccc(-c3ccc(C#N)c(Cl)c3)n2)[nH]n1	inconclusive: 9.2 µM [cytotoxic, partial curve]	active: 14.6 µM		
Cc1cc(C)c(/C=C2\C(=O)Nc3ccc(Cl)cc32)[nH]1	inconclusive: 0.206 µM [cytotoxic, full curve]	inconclusive: 0.366 µM [cytotoxic, full curve]		
C=C1[C@H](OC(C)=O)[C@H]2[C@@H](OC(C)=O)C(C)C[C@]2(OC(C)=O)C(=O)[C@H](C)/C=C/C(C)(C)C(=O)[C@H](OC(=O)C(C)C)[C@H]1OC(C)=O (stereo partly specified)	inactive	inconclusive: 6.11 µM [cytotoxic, single point]		
